Measurements taken from ChEMBL document CHEMBL1157539, “Thousands of chemical starting points for antimalarial lead identification” (Nature, 2010).
In all, about 13,000 compounds were measured (“IFI”: median about 4, highest 2% from about 17 on). Some of the results follow.

Assay: GSK_TCMDC: Inhibition Frequency Index (IFI). The number of non-kinase HTS assays where a compound showed > 50 % inhibition, expressed as a percentage of the number of such assays in which the compound was tested (-0 is zero)
Type: functional

Row | Structure (SMILES) | IFI
1 | N=C(N)NC(=O)Nc1cc(F)c(Cl)c(Br)c1 | 0.73%
2 | CC(C)CCNC(=N)c1ccc(OCCCCCOc2ccc(C(=N)NCCC(C)C)cc2)cc1 | 2.88%
3 | N=C(N)c1cccc(-c2cc(-c3cccc(C(=N)N)c3)on2)c1 | -0%
4 | NC1CCCN(Cc2ccc(-c3cccc(-c4nc5ccccc5[nH]4)c3)cc2)C1 (stereo not given) | 11.3%
5 | CCCCCC(NCCCC)c1ccc(OCCOc2ccc(C(CCCCC)NCCCC)cc2)cc1 (stereo not given) | 16.3%
6 | Cc1ccc2[nH]c(C)cc(=NN=Cc3ccccc3Cl)c2c1 | 0.7%
7 | CC(C)C[C@H](NC(=O)c1cc2ccccc2s1)C(=O)N[C@H]1CCN(Cc2ccc(OC[C@@H]3CCCN3C)c3ccccc23)C1 | 13.3%
8 | COc1ccc2nccc(N3CCC(SCCNS(=O)(=O)c4ccc5c(c4)OCCO5)C3)c2n1 (stereo not given) | 10.8%
9 | COC(=O)c1cccc(CNCc2ccc(-c3ccc(-c4nc5cc(F)ccc5[nH]4)cc3)cc2)c1 | 9.62%
10 | O=C(Nc1ccc(Oc2ccccc2)cc1)N1CCC(CCN2CCC(c3c[nH]c4ccccc34)CC2)CC1 | 5.71%
11 | COc1cc(Nc2nccc(N3CCC(NC(=O)C4COc5ccccc5O4)C3)n2)cc(OC)c1OC (stereo not given) | 1.54%
12 | CC(C)c1ccc(CN(C)CCCCNC(=O)c2ccc(NC(=O)c3ccc(Cl)cc3)cc2)cc1 | 2.61%
13 | Cc1cccc2nc(-c3ccc(-c4ccc(NC(=O)NCc5cccc(F)c5)cc4)s3)[nH]c12 | 6%
14 | Nc1c2c(nc3ccc(NC(=O)CCCCCc4ccccc4)cc13)CCCC2 | 6.16%
15 | COc1ccc2[nH]cc(C3CCN(CCC4CCN(C(=O)/C=C/c5ccc(Cl)c(Cl)c5)CC4)CC3)c2c1 | 5.19%
16 | CN1CCC(C(=O)Nc2ccc(-c3ccc(-c4nc5cc(C(F)(F)F)ccc5[nH]4)s3)cc2)CC1 | 7.83%
17 | CC(C)NCc1ccc(-c2cccc(NC(=O)c3ccc(C#N)cc3)c2)cc1 | -0%
18 | Cc1ccc(Cn2ncc(N3CCC(N)CC3)c(Cl)c2=O)cc1NC(=O)Nc1ccc(-c2ccccc2)cc1 | 11%
19 | O=C1C(C2CCC(c3ccc(Cl)cc3)CC2)=C2OCC3COC2(O3)c2ccccc21 (stereo not given) | 0.75%
20 | CNC(=O)Cc1ccc(C(=O)Nc2cccc(-c3ccc(-c4nc5cccc(C)c5[nH]4)s3)c2)cc1 | 7.21%
21 | COc1cc(F)c2nccc([C@@H](O)CN3CCC(NC(=O)OCc4ccccc4)C(F)C3)c2c1 (stereo not given in full) | 12.7%
22 | COc1cccc(-c2cc(C(=O)NC3CCC(N4CCC(c5ccccc5C)CC4)CC3)[nH]n2)c1 (stereo not given) | 9.84%
23 | Cc1cc2cc(-c3ccc(CN)cc3)ccc2nc1N | 3.88%

Row | Structure (SMILES) | IFI
24 | O=C1COc2ccc(CNC3CCC(O)(CCc4ccnc5cc6c(cc45)OCCO6)CC3)nc2N1 (stereo not given) | 0.73%
25 | Cc1cc(C2CCN(CCCCNC(=O)c3ccc(-c4ccc(C#N)cc4)cc3)CC2)c(C)cc1OCCO | 3.7%
26 | CC1(C)N=C(N)N=C(N)N1OCc1cc2ccccc2cc1CON1C(N)=NC(N)=NC1(C)C | 2.8%
27 | CCN1CCN(CCCNc2c3ccc(Cl)cc3nc3ccc(O)cc23)CC1 | 4.48%
28 | O=C(/C=C/c1cc(C(F)(F)F)ccc1F)NCCCCCN1CCC(c2c[nH]c3ccccc23)CC1 | 4.26%
29 | O=S(=O)(NCCN1CCCC1)c1cccc(-c2cccc(CNCCc3cccs3)c2)c1 | 9.01%
30 | CCCCCCn1ccc2c3c(N)nc(N)nc3ccc21 | 6.45%
31 | OC(c1ccccc1)C1CN(Cc2ccccc2)CCC1(O)c1ccccc1 (stereo not given) | 2.31%
32 | N#Cc1ccc(N2CCN(Cc3cccc(-c4cccc(-c5nc6cc(C(F)(F)F)ccc6[nH]5)c4)c3)CC2)nc1 | 1.92%
33 | COc1ccc2[nH]ccc(=NN=Cc3cccc(Cl)c3)c2c1 | 4.58%
34 | O=C(Nc1ccc(-c2nc3ccccc3[nH]2)cc1)C1CCN(Cc2cccc(F)c2F)CC1 | 4.76%
35 | CCOc1cc(C(=O)NCCN2CCCCC2)ccc1-c1nc2cc(Cl)ccc2[nH]1 | 0.72%
36 | CCCCCN1CCCC1CNS(=O)(=O)c1cccc(C(=O)Nc2cccc(C#N)c2)c1 (stereo not given) | 1.22%
37 | COc1ccc(CNCC2CCC(CNCCc3ccccc3)CC2)cc1Cl (stereo not given) | 2.21%
38 | CCCc1cc(=O)[nH]c(-n2nc(C)cc2NC(=O)C(CC)c2ccccc2)n1 (stereo not given) | 18.5%
39 | NC1=Nc2ccc(Cl)cc2C1(O)c1ccccc1 (stereo not given) | 1.4%
40 | CC(C)(C)C/C=C\c1ccc(C(=O)NCC2CC2)cc1 | 4.72%
41 | O=C(/C=C/c1ccc(Cl)c(Cl)c1)NCCCCCN1CCC(CCNC(=O)Cc2ccc(Cl)cc2)CC1 | 5.59%
42 | CC(C)OC(=O)c1cccnc1SCC(=O)Nc1ccc(C(F)(F)F)cc1Cl | -0%
43 | N#CC1(c2ccccc2)CCN(c2nc(NCCCN3CCCC3=O)nc(N3CCCC4CCCCC43)n2)CC1 (stereo not given) | -0%
44 | Cc1cccc2nc(-c3ccc(-c4ccc(CN5CCN(CC6CCCN(C)C6)CC5)cc4)s3)[nH]c12 (stereo not given) | 7.04%
45 | CN(/N=C/c1ccc(Cl)cc1)c1nc(NCCc2ccc(O)cc2)nc(N2CCNCC2)n1 | 4.51%
46 | COc1cccc(OC)c1C(=O)N1CCC2(CC1)C(=O)N(CC(=O)NC1CCCCC1)CN2c1ccccc1 | -0%

Row | Structure (SMILES) | IFI
47 | CC(C)CCCC(C)NC[C@@H](O)[C@H](Cc1ccccc1)NC(=O)c1cc(N2CCCC2=O)cc(N(c2ccccc2)S(C)(=O)=O)c1 (stereo not given in full) | 4.51%
48 | c1cc(CNCCc2ccncc2)cc(-c2cccc(-c3nc4ccccc4[nH]3)c2)c1 | 7%
49 | O=C(NCCN1CCC(c2ccncc2)CC1)c1ccc(Nc2nccc(Nc3ccc(Oc4ccccc4)cc3)n2)cc1 | 5.19%
50 | O=C(Nc1ccc(OC2CCN(Cc3ccsc3)C2)c(Cl)c1)c1ccc(F)cc1 (stereo not given) | 8.2%
51 | C=CCOc1ccc(Cc2cnc(N)nc2N)cc1CCC | 5.93%
52 | COc1ccc2c(c1)OC(C)(C)CC2=NOS(=O)(=O)c1ccc(C)cc1 | 1.39%
53 | CCCCC(=O)Nc1nc2ccc([N+](=O)[O-])cc2s1 | 1.42%
54 | c1ccc(COc2ccc(C3CCCCC3)cc2)nc1 | 2.9%
55 | Cc1cccc2nc(-c3ccc(-c4cccc(NC(=O)Nc5ccc(Cl)cc5)c4)s3)[nH]c12 | 3.03%
56 | COc1ccc(CN2CCC(CNCCc3ccccc3Oc3ccccc3)CC2)cc1 | 9.86%
57 | COc1cccc(N(CCCN2C(=O)c3cccc4cccc(c34)C2=O)C(=O)c2ccccc2C)c1 | 3.23%
58 | O=C(Nc1cccc(-c2nn3ccccc3c2-c2ccnc(Nc3ccc(NCCCN4CCOCC4)c(F)c3)n2)c1)c1c(F)cccc1F | 5.22%
59 | O=C(N[C@H]1CCN(Cc2ccc(OCCCN3CCCCC3)cc2)C1)c1ccc(Cl)c(Cl)c1 | 7.64%
60 | COc1ccc2nccc(N3CCC(CCNCc4cc5c(cn4)OCCO5)CC3)c2n1 | 5%
61 | Cn1cnc2c(SCc3ccccc3OCc3ccccc3)ncnc21 | 3.36%
62 | CCC(C)NC(=O)CN1CN(c2ccccc2)C2(CCN(C(=O)c3ccc(-c4ccccc4)cc3)CC2)C1=O (stereo not given) | 1.67%
63 | COc1ccc(C(=O)CC(=O)c2ccc(OC)cc2OC)c(OC)c1 | 1.41%
64 | CCn1cnc2c(N3CCCC3=O)cc(C(=O)N[C@@H](Cc3ccccc3)[C@H](O)CNC3CCCCC3)cc21 | 1.49%
65 | O=C(NCc1ccc(Cl)c(Cl)c1)c1cccc(C2CCCN(Cc3ccc4[nH]cnc4c3)C2)c1 (stereo not given) | 5%
66 | CCC[C@@H]([C@@H](CC(C)C)C(=O)N[C@H](C(=O)Nc1nccs1)C(C)(C)SCCNC(=O)OCC)N(O)C=O | 1.48%
67 | Cc1ccc(N2C(=O)C3C(C2=O)C2(c4ccccc4)C(=O)C3(c3ccccc3)C(c3ccccc3)=C2c2ccccc2)cc1 (stereo not given) | 0.74%
68 | O=C(Nc1ccc(-c2ccc(-c3nc4cc(C(F)(F)F)ccc4[nH]3)s2)cc1)c1c[nH]cn1 | 5.5%
69 | COc1cccc(C(=O)Nc2ccc(Nc3nc(C)cc(N4CCCCC4)n3)cc2)c1OC | 13%

Row | Structure (SMILES) | IFI
70 | c1ccc2c3c([nH]c2c1)C(c1ccc2c(c1)CCO2)N(c1ncnc(N2CCN(CCCN4CCOCC4)CC2)n1)CC3 (stereo not given) | 7.41%
71 | COC(=O)C(NC(=O)NC1CCN(c2ccnc(Nc3ccc(F)cc3)n2)C1)c1ccccc1 (stereo not given) | -0%
72 | CN1CCC(NCc2cccc(-c3cnc(NCc4ccccc4)nc3)c2)CC1 | 5.56%
73 | Cc1cccc(C(=O)Nc2ccc(N3CCCN(Cc4cccc(O)c4)CC3)cc2)c1 | 7.69%
74 | c1cc(-c2cc3ccc(C4=NCCN4)cc3[nH]2)ccc1C1=NCCN1 | 3.36%
75 | COc1ccc(CN2CCN(CCCCNC(=O)c3ccc(NC(=O)c4ccc(Cl)cc4)cc3)CC2)c(OC)c1 | 2.68%
76 | Cc1nn(CC(O)Cn2c3ccc(Br)cc3c3cc(Br)ccc32)c(C)c1Br (stereo not given) | 1.48%
77 | c1ccc(CN2CCC(NCc3ccccc3-c3cccc(CNC4CCCC4)c3)CC2)cc1 | 5.84%
78 | COc1cc(F)c2ncc(Cl)c([C@@H](O)CN3CCC(NCc4ccc5c(n4)NC(=O)CO5)CC3)c2c1 | 0.88%
79 | Cc1ccc(NC(=O)c2cccc(CN3CCCN(Cc4cccc(O)c4)CC3)c2)cc1 | 1.43%
80 | Cn1ncc2ccc(Nc3nccc(-c4ccc5c(c4)c(N)nn5C)n3)cc21 | 17.8%
81 | COc1ccc(CNC2CCN(C)CC2)cc1-c1ccc(S(=O)(=O)NC2CCC2)c(F)c1 | 6.67%
82 | CNCc1cccc(-c2ccc3ccnc(N)c3c2)c1 | 1.87%
83 | O=C(Nc1ccc(Oc2cccnc2)cc1)C1CCN(Cc2cc(Cl)ccc2O)CC1 | 11.1%
84 | CN(C)c1cccc2c1nc(-c1ccco1)n2CC1CCCN1 (stereo not given) | 1.33%
85 | Nc1nc(N)c2c(Cc3ccc(Br)cc3)cccc2n1 | 3.57%
86 | CCCN(CCC)CC(O)COc1ccccc1C(=O)Nc1ccccc1 (stereo not given) | 0%
87 | O=C(CCc1cccnc1)Nc1ccc(-c2cccc(-c3nc4cc(F)ccc4[nH]3)c2)cc1 | 4.35%
88 | CC(C)[C@H](NC(=O)c1c(CN2CCC(N3CCCCC3)CC2)c(-c2ccccc2)nc2cc(O)ccc12)c1ccccc1 | 4.29%
89 | COc1ccc(Cl)cc1N1CCN(CCCNC(=O)c2ccc(-c3nc4cc5ccccc5cc4[nH]3)c(F)c2)CC1 | 4.32%
90 | CN(C)CCCNc1ncnc2c1[nH]c1ccc(Cl)cc12 | -0%
